Test results reported in the RNAGym collection of RNA variant scans (doi:10.1093/nar/gkz1192).
Read counts are not given, so values of variants with three or more changes are uncertain.

B1: CPEB3 Ribozyme (parent)
chain: UAACAGGGGGCCACAGCAGAAGCGUUCACGUCGCAGCCCCUGUCAGAUUCUGGUGAAUCUGCGAAUUCUGCUGUAUAUCUC

Variants of: B1
Test: self-cleavage, relative activity (ratio to wild type); higher = more cleavage; in vitro, sequencing
Outline: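 Relative activity compares each variant's cleaved/total read fraction with that of the unmutated ribozyme. To get these fractions, barcoded CPEB3 ribozyme libraries from rounds of error-prone PCR were transcribed with T7 RNA polymerase for 5 hours at 37°C and then given 15 min of DNase I treatment before EDTA was added. The RNAs were reverse transcribed with template switching and sequenced on Illumina, and DNA sequencing linked barcodes to variants. A minimum of 5 reads applied, and three batches were averaged.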

Variant | self-cleavage
U1C A18G U67C A75U | 0.21
U1C A18G U69C U72C | 0.77
U1C A18G U76A | 0.72
U1C A18U A28G | 0.09
U1C A18U A28G U31C U49C A56U | 0.25
U1C A18U A35G A45U | 0.22
U1C A18U A56U | 0.35
U1C A18U C29A U51C U69A U74C U78C | 0.3
U1C A18U C40A U58A U60A A75U | 0.05
U1C A18U G33A C40U U72A | 0.05
U1C A18U G46C G52U A64U | 0.12
U1C A18U U26C U48C U51A | 0.29
U1C A18U U26C U60C U67A U72C A75U | 0.06
U1C A18U U41C A45G A64G U78A | 0.19
U1C A18U U48C U54A | 0.32
U1C A18U U51G U74C | 0.19
U1C A20C C39U U41A U69C | 0.15
U1C A20C U31C | 0.22
U1C A20G A21C C40U U51A U66C U80C | 0.24
U1C A20G A21G U31C C39U U78C | 0.04
U1C A20G A28C G30C A45U U78C | 0.21
U1C A20G A28U C34A G55A A57G U69C | 0.19
U1C A20G A35G | 0.99
U1C A20G A35G U48A A65G | 0.1

Variant | self-cleavage
U1C A20G A45G U54A A64G U72C | 0.13
U1C A20G A47U U60C | 0.1
U1C A20G A75G U76A | 0.36
U1C A20G C37U U54G U60A U78C | 0.1
U1C A20G G24C C40U | 0.06
U1C A20G G33A | 0.24
U1C A20G G36C U51C A65G U78C | 0.12
U1C A20G G42A U66C | 0.33
U1C A20G U25C G30C A47G | 0.35
U1C A20G U26A U72A | 0.46
U1C A20G U26A U80C | 0.63
U1C A20G U26C U31A C40A U72A | 0.04
U1C A20G U31A A47G | 0.31
U1C A20G U31C C32A C38G C59U | 0.11
U1C A20G U41C A45U U48C G61A A64U | 0.05
U1C A20G U48C | 0.36
U1C A20G U51A U74A U80C | 0.97
U1C A20G U51C U80C | 0.98
U1C A20G U80C | 0.94
U1C A20G U80G | 0.98
U1C A20U A28G U72C | 0.09
U1C A20U A35G G36A A64U U67C | 0.11
U1C A20U A57G U60C | 0.08
U1C A20U A64G | 0.25

Variant | self-cleavage
U1C A20U C29U A47G U72C U76C | 0.15
U1C A20U G61C U69C U72G U74A | 0.08
U1C A20U U25A U60C | 0.14
U1C A20U U31C A77U | 0.14
U1C A20U U31G A45U A64C U67C | 0.07
U1C A20U U41C U43C G61A U80C | 0.07
U1C A20U U51A | 0.11
U1C A20U U72A | 0.26
U1C A21C U49C U60C | 0.06
U1C A21G A28G U43C C44G U60A | 0.05
U1C A21G A35G U72C U78C | 1.1
U1C A21G A35U U51C U74C | 0.12
U1C A21G A47G C71A U74C | 0.13
U1C A21G A47U U51A U72A | 0.12
U1C A21G A56G U58A G61A U72C | 0.1
U1C A21G A64G | 0.43
U1C A21G C34A U60C U66C U72C U80C | 0.06
U1C A21G C40U U69C | 0.07
U1C A21G G30A A35G U41A A77U | 0.06
U1C A21G G30A U54G A64U U74A | 0.16
U1C A21G U25A U78C | 0.06
U1C A21G U26C G52U | 0.1
U1C A21G U31A A35G U49C | 0.44
U1C A21G U31A U54A A56C U66C U69A | 0.03

Variant | self-cleavage
U1C A21G U31C A56U U60C | 0.06
U1C A21G U58A A77G | 0.3
U1C A21G U60A | 0.1
U1C A21G U66A U78C | 0.22
U1C A21G U66C U72C U80C | 0.74
U1C A21G U67C | 0.22
U1C A21G U72C | 0.69
U1C A21U A28U A35U A45G U76C | 0.11
U1C A21U A65G | 0.27
U1C A21U U26A U51C U78C | 0.22
U1C A21U U49C U51A A56U A64U U80C | 0.08
U1C A28C A45U U74C | 0.11
U1C A28G A45U | 0.4
U1C A28G A56G | 0.37
U1C A28G A56U U67A U69C | 0.06
U1C A28G A64G U67C | 0.06
U1C A28G A65G | 0.42
U1C A28G C40U A45U U66C U80C | 0.09
U1C A28G G42A | 0.31
U1C A28G G42A U48A | 0.08
U1C A28G U41C A47G A64G U80C | 0.03
U1C A28G U54A A64U A65G | 0.17
U1C A28G U80C | 0.83
U1C A28U A45G U48C U60A U72C | 0.07

Variant | self-cleavage
U1C A28U A47G U51A U60C | 0.12
U1C A28U A64G A65G U72C | 0.07
U1C A28U A77G | 0.92
U1C A28U A77U | 0.64
U1C A28U C39A U78C | 0.3
U1C A28U G42C U80C | 0.3
U1C A28U U31A A35G | 1.05
U1C A28U U31A C62A | 0.27
U1C A28U U43A | 1.03
U1C A28U U43A A45G | 0.4
U1C A28U U49A A56G | 0.26
U1C A28U U51A A64G U66C U72C | 0.05
U1C A28U U51A U72C | 1.01
U1C A28U U72A | 0.33
U1C A35C U48C | 0.26
U1C A35G G53A U80C | 1.24
U1C A35G U41A U51A | 0.46
U1C A35G U41A U80C | 0.39
U1C A35G U41C U43A U69A | 0.78
U1C A35G U41C U58C | 0.72
U1C A35G U41C U72A | 1.17
U1C A35G U43C A45U A47G U78A U80C | 0.55
U1C A35G U48A A65G | 0.35
U1C A35G U49C U58A U72A | 0.26

Variant | self-cleavage
U1C A35G U51A U69A | 1.23
U1C A35G U72C | 1.24
U1C A35U A65G U69C U72A | 0.17
U1C A35U C37A U54C A56U U78A | 0.14
U1C A35U C40U | 0.14
U1C A35U U41C U43A | 0.16
U1C A35U U49C G52A U54C A56U U60A | 0.15
U1C A35U U49C G52A U54C U60A | 0.16
U1C A35U U49C U67C U76G U78C | 0.05
U1C A35U U51A A64G | 0.26
U1C A35U U66C | 0.17
U1C A45G A47G | 0.33
U1C A45G A57C | 0.35
U1C A45G A57G | 0.43
U1C A45G A57G C68U G73C | 0.75
U1C A45G A64U | 0.11
U1C A45G C50A | 0.47
U1C A45G U51C C68U | 0.32
U1C A45G U51C U60G U72C | 0.14
U1C A45G U51C U72C | 0.48
U1C A45G U54C | 0.54
U1C A45G U66C | 0.29
U1C A45G U69C | 0.19
U1C A45G U69G | 0.21

Variant | self-cleavage
U1C A45U A47G U69C | 0.42
U1C A45U A77G | 0.51
U1C A45U U49C | 0.19
U1C A45U U69C | 0.1
U1C A45U U72A | 0.17
U1C A47G C59A | 0.4
U1C A47G U48A U60A | 0.09
U1C A47G U48C | 0.28
U1C A47U A57G A64G | 0.21
U1C A56C G73A | 1.02
U1C A56C U72A | 0.25
U1C A56G A57U U58C A64G | 0.14
U1C A56G C68U | 0.4
U1C A56G U69A | 0.48
U1C A56G U72A | 0.45
U1C A56G U72A U74C | 1.07
U1C A56U C68A U69C | 0.18
U1C A56U U58C A64G | 0.16
U1C A57C U80C | 0.54
U1C A64G A77U C81G | 0.75
U1C A64U U69C | 0.21
U1C A65G U67C | 0.47
U1C A65G U72A | 0.25
